About 4,000 (4.3%) of roughly 94,000 compounds were called active. Inconclusive results, whose numbers are uncertain, are shown with a selection of clear calls. The call rests on the fitted dose curve; in most records, active means well fitted inhibition curve with a large enough effect; inconclusive means small, poorly fitted or top-dose-only effect; inactive means no such curve, though single readings can be large or run the other way. Potencies of inconclusive entries are doubtful fits and often do not repeat.
Test: Cytotoxic Profiling in NIH 3T3 Cell Line of Diverse Libraries Using Quantitative High-Throughput Screening; further: nearly all actives have a fitted effect of over 55% in size
Settings: NIH 3T3 viability, CellTiter-Glo ATP luminescence, 48-72 h; activity change, negative = cytotoxicity: at 96.7 µM (top of the series) unless noted; series mostly up to 96.7 µM
Method in brief: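 Cells were seeded at 400 per well, treated with pin-transferred compound, and kept 48 or 72 hr at 37 °C before CellTiter-Glo addition and luminescence imaging of cellular ATP.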
On the % scale 0 is the no-effect control and ±100 the full control effect; potency means the concentration at half of the fitted maximal effect; tags describe the fitted curve by direction and shape.

Row | SMILES | Potency | activity change, negative = cytotoxicity | outcome
1 | COCCN1CCCCCC(O)c2cc(C(=O)NCc3cc(F)cc(F)c3)ccc21 (stereo unspecified) | inconclusive: 50.1 µM [inhibitor, partial curve, poor fit] | – | –
2 | C#CCNC(=O)C1CCCN1c1nccc(Nc2ccccc2F)n1 (stereo unspecified) | inconclusive: 100 µM [inhibitor, partial curve, poor fit] | – | –
3 | O=C(COc1ccccc1)N1CCCN(c2cc(-c3ccc(Cl)cc3)[nH]n2)CC1 | inconclusive: 44.7 µM [inhibitor, partial curve, poor fit] | – | –
4 | O=C1CCN(S(=O)(=O)c2ccccc2)CCCN(Cc2ccc3[nH]ccc3c2)CCN1 | – | inactive: -17.3% | –
5 | CC1(C)Cc2cc(CNC(=O)c3cccc(C4CCNC4)c3)ccc2O1 (stereo unspecified) | inconclusive: 70.8 µM [inhibitor, partial curve, poor fit] | – | –
6 | Cc1nn(-c2ccc(C(F)(F)F)cc2)c(C)c1[C@@H]1C=C[C@@H](NC(=O)NC(C)C)C1 | inconclusive: 50.1 µM [inhibitor, partial curve, poor fit] | – | –
7 | O=C(c1ccc(F)cc1)N1CCC(n2c(=O)[nH]c3ccccc32)CC1 | – | inactive: -22.2% [at 138 µM] | –
8 | CN1CC(C(=O)N2CCc3c(nc(-c4ccncc4)nc3N(C)C)C2)CC1=O (stereo unspecified) | – | inactive: -2.98% | –
9 | CCC1(N2CCN(S(=O)(=O)c3cccc(C#N)c3)CC2)CCN(C(=O)C(C)C)C1 (stereo unspecified) | inconclusive: 44.7 µM [inhibitor, partial curve, poor fit] | – | –
10 | O=C(C1CC1)N1CCC(c2nn(-c3ccccn3)c(=O)[nH]2)CC1 | – | inactive: -19.2% [at 138 µM] | –
11 | O=C(c1ccc(F)c(Cl)c1)N1CCC(c2n[nH]c(=O)n2-c2ccccc2)CC1 | inconclusive: 50.1 µM [inhibitor, partial curve, poor fit] | – | –
12 | Cc1nn(-c2ccccc2)c2c1C(C)N(C1CCN(C(=O)c3ccccc3Cl)C1)C2=O (stereo unspecified) | inconclusive: 50.1 µM [inhibitor, partial curve, poor fit] | – | –
13 | CC(C)[C@@H]1C[C@@H]2C[C@@H](NC3CCCC3)C[C@]2(c2ccccc2)CO1 | inconclusive: 11.2 µM [inhibitor, full curve, poor fit] | – | –
14 | CCN1c2cc(C(=O)NCc3cccc(C)c3)ccc2C(=O)N2CCCCCC21 (stereo unspecified) | inconclusive: 44.7 µM [inhibitor, partial curve, poor fit] | – | –
15 | O=C1CN(C(=O)CCC(=O)N2CCC(CCOc3ccccc3F)C2)c2ccccc2N1 (stereo unspecified) | inconclusive: 31.6 µM [inhibitor, full curve] | – | –
16 | COc1ccc(-c2nnc(C[C@@H]3C[C@@H](C(C)C)[C@H](CNc4ccccn4)C=C3C)o2)cc1 | active: 35.5 µM | – | –
17 | CC1CCN([C@@H]2[C@H](O)[C@H](CO)O[C@@H]2CNC(=O)c2ccc(F)c(Cl)c2)CC1 | – | inactive: -7.8% | –
18 | O=C(NC1CN(c2ccnc3ccnn23)C1)c1ccc(Cl)cc1 | inconclusive: 63.1 µM [inhibitor, partial curve, poor fit] | – | –
19 | O=C(NCCCc1ccccc1)c1nc2cccnc2n(CCc2ccccc2)c1=O | inconclusive: 44.7 µM [inhibitor, partial curve, poor fit] | – | –
20 | O=C(Cc1ccsc1)Nc1cnc(-c2ccccc2)nc1 | inconclusive: 44.7 µM [inhibitor, partial curve, poor fit] | – | –
21 | COc1ccc(C(=O)N2CCCn3ccnc3C2c2cnn(C)c2)cn1 (stereo unspecified) | – | inactive: -0.0224% | –

Row | SMILES | Potency | activity change, negative = cytotoxicity | outcome
22 | COc1ccc(-c2noc([C@@H]3C[C@H](NC(=O)NC(C)C)CN3C)n2)cc1 | inconclusive: 100 µM [inhibitor, partial curve] | – | –
23 | Cc1noc(-c2cccc(F)c2)c1C(=O)NCCc1cccc(Cl)c1 | inconclusive: 50.1 µM [inhibitor, partial curve, poor fit] | – | –
24 | CC(C)CCNC(=O)c1cnc2c(c1)N(C(=O)Cc1cn(C)c3ccccc13)CCC2 | inconclusive: 56.2 µM [inhibitor, partial curve, poor fit] | – | –
25 | CCOC(=O)C(Cc1ccc(F)c(N2CCN(C(=O)OC(C)(C)C)CC2)c1)OC (stereo unspecified) | inconclusive: 50.1 µM [inhibitor, partial curve, poor fit] | – | –
26 | COc1ccc(C)cc1NC(=O)C1CC(=O)N(c2n[nH]c3cc(Br)ccc23)C1 (stereo unspecified) | inconclusive: 50.1 µM [inhibitor, partial curve, poor fit] | – | –
27 | CCC(=O)N1CCc2c(C(=O)O)cccc21 | – | inactive: -23.8% | –
28 | CCc1cc(CNC(=O)c2cc(Cn3c(C)nc4ccccc43)[nH]n2)on1 | inconclusive: 28.2 µM [inhibitor, partial curve, poor fit] | – | –
29 | N#Cc1cccc(NC(=O)O[C@@H]2CO[C@H]3[C@@H]2OC[C@@H]3Nc2nccc(-c3ccc4c(c3)OCO4)n2)c1 | inconclusive: 35.5 µM [inhibitor, partial curve] | – | –
30 | COc1ccc(CNC(=O)N2CCc3nc(-c4ccccc4)[nH]c3C2)cc1 | inconclusive: 50.1 µM [inhibitor, partial curve, poor fit] | – | –
31 | CS(=O)(=O)N1CCc2ccc(C(=O)NCc3ccc(N4CCCCC4)cc3)cc21 | inconclusive: 70.8 µM [inhibitor, single point] | – | –
32 | CCCn1cc(-c2ccncc2)cc1C(=O)NCc1cccc(F)c1 | inconclusive: 44.7 µM [inhibitor, partial curve, poor fit] | – | –
33 | COc1ccc(F)cc1-c1cccc(C(=O)NCCNC(=O)c2ccccn2)c1 | inconclusive: 50.1 µM [inhibitor, partial curve, poor fit] | – | –
34 | CCOc1ccc(NC(=O)N2c3ccccc3CC2c2nc(C3CC3)no2)cc1 (stereo unspecified) | inconclusive: 50.1 µM [inhibitor, partial curve, poor fit] | – | –
35 | CCCNC(=O)N(C1CCOCC1)C1CCN(C(=O)c2cc(Cl)ccc2OC)CC1 | inconclusive: 50.1 µM [inhibitor, partial curve, poor fit] | – | –
36 | Cc1ccc(C(=O)N2CCC3(CC2)CC(=O)N(c2ccccc2)c2ccccc2O3)cc1 | – | inactive: -25.6% | –
37 | CCn1ncc(CN2CCCC(C(=O)N3CCN(c4ccccn4)CC3)CCNC(=O)CC2)c1C (stereo unspecified) | – | inactive: -6.86% | –
38 | Cc1ccc(C2=NC3(CCN(C(=O)c4cccc(C)c4)CC3)ON2)cc1 | inconclusive: 56.2 µM [inhibitor, partial curve, poor fit] | – | –
39 | O=C1NCCCCCCN(C(=O)c2cc3ccccc3[nH]2)[C@H]2CCC[C@@H]12 | inconclusive: 56.2 µM [inhibitor, partial curve, poor fit] | – | –
40 | Cn1ncc2c(C(=O)NCC3CCCCC3)cc(-c3ccc(F)cc3)nc21 | inconclusive: 50.1 µM [inhibitor, partial curve, poor fit] | – | –
41 | CN(C)CCC(=O)N1Cc2ccccc2CC2(CCCCN2C)C1 (stereo unspecified) | inconclusive: 89.1 µM [inhibitor, single point] | – | –
42 | Cn1cc(CN2C[C@H](C(=O)Nc3nccs3)C[C@H]2c2cccc(C(F)(F)F)c2)cn1 | inconclusive: 89.1 µM [inhibitor, partial curve, poor fit] | – | –

Row | SMILES | Potency | activity change, negative = cytotoxicity | outcome
43 | CC1=C[C@@H](CNC(=O)c2ccccn2)[C@H](C(C)C)C[C@H]1CC(=O)N1CCN(C)CC1 | – | inactive: -5.78% [at 138 µM] | –
44 | CC(C)c1cc(C(=O)N2CCn3nc(C(=O)Nc4ccccc4)cc3C2)n[nH]1 | inconclusive: 56.2 µM [inhibitor, partial curve, poor fit] | – | –
45 | COc1cccc(-c2nc3c([nH]2)CN(c2cc(C4CC4)ncn2)CC3)c1 | inconclusive: 7.94 µM [inhibitor, full curve, poor fit] | – | –
46 | Cn1nc(C(=O)N2CCCC(CNC(=O)c3ccc(-c4ccccc4)cc3)C2)ccc1=O (stereo unspecified) | inconclusive: 56.2 µM [inhibitor, partial curve, poor fit] | – | –
47 | COc1ccc2[nH]c(C[C@@H]3C[C@@H](C(C)C)[C@H](CN(C)C)C=C3C)nc2n1 | active: 89.1 µM | – | –
48 | Cc1cc(C)cc(-c2ccc(CN3CCCC3C(=O)N3CCOCC3)cc2)c1 (stereo unspecified) | inconclusive: 35.5 µM [inhibitor, partial curve, poor fit] | – | –
49 | COc1cc(NC(=O)C2CCc3sc(C(=O)N4CCOCC4)cc3C2)cc(OC)c1 (stereo unspecified) | – | inactive: -25.1% | –
50 | COc1cccc(CCC(=O)N2CCCC(CN3CCC(C)CC3)CC2)c1 (stereo unspecified) | – | inactive: -15.3% | –
51 | O=C(NCCc1ccc(Cl)cc1)c1nc2cccnc2n(Cc2ccccc2)c1=O | inconclusive: 70.8 µM [inhibitor, partial curve, poor fit] | – | –
52 | COc1ccc(CNC(=O)CC2CCCN(c3cn[nH]c(=O)c3)C2)cc1 (stereo unspecified) | – | – | inactive
53 | CCc1noc(-c2cn(C3CCCN(C(=O)c4ccc(C)s4)C3)nn2)n1 (stereo unspecified) | – | inactive: -22.6% | –
54 | CCOc1ccc(NC(=O)c2ccc(Cn3ccn4nc5c(c4c3=O)CCCC5)cc2)cc1 | – | inactive: -24.8% | –
55 | FC(F)(F)c1ccc(-c2noc(-c3ncn4c3COC(c3ccccc3Cl)C4)n2)cc1 (stereo unspecified) | inconclusive: 50.1 µM [inhibitor, partial curve, poor fit] | – | –
56 | O=C(C1CCCN1c1nccc(Nc2ccccc2F)n1)N1CCN(Cc2ccccc2)CC1 (stereo unspecified) | inconclusive: 70.8 µM [inhibitor, partial curve, poor fit] | – | –
57 | CC(C)Cc1cc(C(=O)N2CCCC(c3ccc(C(=O)O)cc3)C2)nc(=O)[nH]1 (stereo unspecified) | – | inactive: -2.21% | –
58 | Cc1noc(-c2cn(C3CCCN(C(=O)c4cccc(Cl)c4)C3)nn2)n1 (stereo unspecified) | inconclusive: 50.1 µM [inhibitor, partial curve, poor fit] | – | –
59 | Cc1noc2ccc(-c3cnn(Cc4ccccc4)c3)nc12 | inconclusive: 56.2 µM [inhibitor, partial curve, poor fit] | – | –
60 | COCC(=O)NC1CCCN(Cc2ccc(-c3cncnc3)cc2)C1 (stereo unspecified) | – | inactive: -4.2% [at 138 µM] | –
61 | CCn1cc(-c2ccccc2)cc1C(=O)NCc1ccncc1 | inconclusive: 44.7 µM [inhibitor, partial curve, poor fit] | – | –

— PubChem BioAssay AID1345082 (National Center for Advancing Translational Sciences (NCATS), 2018)
